This passage reports binding signal results from article PMC12136788.

The list shows a part of the results.

T1: UNK ZnF1-3 (human, UniProt Q9C0B0 31-174)
T1 sequence: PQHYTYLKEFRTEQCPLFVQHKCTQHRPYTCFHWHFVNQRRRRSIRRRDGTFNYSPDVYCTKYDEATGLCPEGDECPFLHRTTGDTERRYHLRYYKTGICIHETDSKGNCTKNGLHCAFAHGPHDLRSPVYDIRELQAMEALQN

B1: chr7:149068622:149068623:-_ENSMUSG00000025139_ENSMUST00000001950|mus_hu|mus_mus_mus_hu_False|48_108 (ssRNA)
RNA: GGGAGUUCUACAGUCCGACGAUCGUGCAGGUACUGAGUGUGGCUUGUGGUCUGUCCUGGGUUAGAGUUGUUAAUAUCACGGAACAUACCACUUAAGACGUUCCAGUCCCGCCUGACACCUUCAUUCCCAAUGGAGAAGAAAUCCAACAGAGGAUUGAGCAUCA
B2: chr10:126435856:126435857:+_ENSMUSG00000078429_ENSMUST00000105256|mus_hu|FALSE|FALSE (ssRNA)
RNA: GGGAGUUCUACAGUCCGACGAUCAGUGGAAACCCUUACCUGACCCUUUUCCAAACUGGUCCUGUGUCCAAAGCUCCCCCUAUGAGAGGGACACGAACAUCAGGCUUUUGAUUUAGAAGCCCAAUCAGAGAGACACACUGUGUCCAACAGAGGAUUGAGCAUCA
B3: chr12:46205223:46205224:+_ENSG00000189079_ENST00000334344|hu_hu|FALSE|FALSE (ssRNA)
RNA: GGGAGUUCUACAGUCCGACGAUCCUGUGGCUUUGGAUUGCCUGGUGGUACCUCAUCAUCAUCCUCCCCAAAAUGAUGAACUUUCUCGUACUUUUCUAGGUAACGCAAGUAAUACUGUUUUAAAGCAAAGGCAGCGUUAGAACACAACAGAGGAUUGAGCAUCA
B4: chr16:44739181:44739182:-_ENSMUSG00000022668_ENSMUST00000162512|mus_mus|motif|central (ssRNA)
RNA: GGGAGUUCUACAGUCCGACGAUCUCUCACUUCAUGCACUUGUAUAUGCUCUGGACUUGUCAGUUAAAAUAGAAAAGCCAGCGGGCAUCUGUCCUAAUGACCAAUAUGAUUUAAUUCAUUAUUUGUAACCCUUACCCCCAGCGCCAACAGAGGAUUGAGCAUCA
B5: 60646289_60646409_5073_CDS_ENSG00000081913_ENST00000262719|human|control|control (ssRNA)
RNA: GGGAGUUCUACAGUCCGACGAUCGCUCCUUUCCUGGGGCGCAACAGAGCCAUUGGCCCUCCGGCGCCCAAUGGUCCCAACGGCAGAGAAGUCUGCCUUCCUGGGCAGACCUGGCUCAUCCUCGUUGGCGCUGAUGACAAUGCCCAACAGAGGAUUGAGCAUCA
B6: chr10:80924034:80924035:-_ENSMUSG00000034818_ENSMUST00000118763|mus_mus|FALSE|FALSE (ssRNA)
RNA: GGGAGUUCUACAGUCCGACGAUCUUAAAACUGGAACUAUGGCAGCCAUCCGGGGGUUUCUACCUGAUUCGUGGGUUUCCUAAUCGAAGCCAAAAUAGAUAAAGCCCAAAAGACCCAGAUAAUGGACAAAAAACACUGAAGGAUCAACAGAGGAUUGAGCAUCA
B7: chr5:73930785:73930786:-_ENSG00000171617_ENST00000302351|hu_hu|FALSE|FALSE (ssRNA)
RNA: GGGAGUUCUACAGUCCGACGAUCCUUUGCUGUCACAUCUCCCACCUUGGUCCACUGGUAAGUCUCACUGUUGAAUUUAUAAGCAGAGCAGGCAGAGAAUUCUGUAUCACCCCCCAUAAUAAAAAUCUGGUUCCCCAGCACAGCCAACAGAGGAUUGAGCAUCA
B8: chr7:118215947:118215948:-_ENSMUSG00000005610_ENSMUST00000162415|mus_hu|FALSE|FALSE (ssRNA)
RNA: GGGAGUUCUACAGUCCGACGAUCGGUCCUUGCAAUAGACUGCCUCUGCUUGAGAACUUAUGAUGUAAUUAUUGCAUGCUGCUAAUAUACUAUCUAAACAUUAAAGAUACUCCUAAAAUAUUUGAUGGUAGACUAUGAUUAAGACAACAGAGGAUUGAGCAUCA
B9: chr21:34923711:34923712:+_ENSG00000159140_ENST00000381679|hu_hu|motif|central (ssRNA)
RNA: GGGAGUUCUACAGUCCGACGAUCCAUCUGGGAGUCCAUGGUGUUGGACGCUAGCAUUUGGGAGUCCAUGGUGUUGGAUGCGGAUAUAUGGGUCUCCAUGGUGUUAGAAGCUAAUAUAUGGGAUUCUGGGGCCAUCAAGGGAUCCAACAGAGGAUUGAGCAUCA
B10: chr13:100201144:100201145:-_ENSMUSG00000052727_ENSMUST00000064762|mus_mus|FALSE|FALSE (ssRNA)
RNA: GGGAGUUCUACAGUCCGACGAUCCUCUUCCGUUGGCGGGAUCUUAUGCGACAAACUAGAGUCCUGGAUAUCAGAGGGACUAUAGUCCACUUCAGUUGGCCCGUUUUCAGUGAUAUGAAGCACACUGGCACCCAGAGUAGGGUGCAACAGAGGAUUGAGCAUCA
B11: chr7:63200040:63200041:-_ENSMUSG00000030452_ENSMUST00000032635|mus_hu|FALSE|FALSE (ssRNA)
RNA: GGGAGUUCUACAGUCCGACGAUCAUUUCGUUUGUUACUUAAGGAGUUCCUGUGAAUCACAUUGAUCACAGAACAGAGAAACCGCUGGUACUAGAGGCAGAAUGAAGCAGUCUUCAAACCCUAGUCGGCCGGCCGGCCGCGCGGCAACAGAGGAUUGAGCAUCA
B12: chr8:92090715:92090716:+_ENSG00000155100_ENST00000285420|hu_hu|FALSE|FALSE (ssRNA)
RNA: GGGAGUUCUACAGUCCGACGAUCUUUCAGUUGAUCUUCAAUGGCUUUAUACAUACAGUGGCCAUCAGAUGGAAUCUGUUUAAUUUCUAACUGUCUAGCUGCCAAUAUUUGAGCAAGUUUCUCACUUUCCAUAUGUCUGGCUCCCAACAGAGGAUUGAGCAUCA
B13: chr3:10015032:10015033:+_ENSMUSG00000027533_ENSMUST00000029046|mus_mus|mus_mus_mus_hu_True|58_88 (ssRNA)
RNA: GGGAGUUCUACAGUCCGACGAUCGUUUUUACCAUCACAAGUGAUGAUACAGUCUGGCUUGGCCAUUGCGCCCAUUUUCCUAAGAGCUAUUCCCACUCCUAGCUCCUUCAUGUAUUCAUCAAAGCCUUUGCUGUCCACCAGGCGCAACAGAGGAUUGAGCAUCA
B14: chr7:138713503:138713504:-_ENSG00000146858_ENST00000275766|hu_hu|FALSE|FALSE (ssRNA)
RNA: GGGAGUUCUACAGUCCGACGAUCUGUAUUUUCAAGCAUCUUGUGCAGCUUCAUAUGCUUGUAGGUGGAGAUUAUCUGAAAAUUAACAACACUUGGAAUAUUCAGUCCUUGGUCCUGUAGCAGCUUCAAAGAUGCAGCAUGGAUCAACAGAGGAUUGAGCAUCA
B15: 102310474_102310594_3790_3pUTR_ENSG00000166135_ENST00000299163|human|control|control (ssRNA)
RNA: GGGAGUUCUACAGUCCGACGAUCACCAAGACCCUUAGUGCCAUCUAGAACUACAGCUUCAGUUCUAUAGAUGCAAAAGCAUGCCGGGAGGAGUUAUGGGUCCUAUUCAAGGACACAUAAGUAAUGCAAUUAGACACAGAACUCCAACAGAGGAUUGAGCAUCA
B16: chr5:33461064:33461065:+_ENSG00000113407_ENST00000502553|hu_hu|motif|central (ssRNA)
RNA: GGGAGUUCUACAGUCCGACGAUCGGUGAGUCCUGUGAGUGCUCCAGACAGCUCGUUCCUAUGAAGUACCCCAAAAUCAGCGGGCCGCAGAGGCAGUUCUCGCCAGGACCUUGGCCGAUGAUCAAACAUAAGGCAGUGUCCUGGCAACAGAGGAUUGAGCAUCA
B17: chr18:34480306:34480307:+_ENSMUSG00000005871_ENSMUST00000115781|mus_mus|FALSE|FALSE (ssRNA)
RNA: GGGAGUUCUACAGUCCGACGAUCCUUUUACUUCUAACAUUAAUUUCUUAAAACAUGAAUUAAAAGGCAAUUGUAUUCUAACUAAAACCUCAUCUCUUUCCACAAAACUACUUGAAGUGCCUUAUAAAAACUGACGUGCAGUAACAACAGAGGAUUGAGCAUCA
B18: chr5:176562935:176562936:+_ENSG00000165671_ENST00000439151|hu_hu|motif|central (ssRNA)
RNA: GGGAGUUCUACAGUCCGACGAUCGGUACUGGAAUCUGGAUCAUCCUGAAAAGAUAAAUUUAUUGAGUUUAAUUGCUCUUCGGUUGUAAUGUUUGUGUCUCCUAGUGAAAAGGGGGCUGGGAGAAGGGCUGCUUUUUCAUUGCUCAACAGAGGAUUGAGCAUCA
B19: chr4:6320793:6320794:+_ENSMUSG00000028249_ENSMUST00000103008|mus_hu|FALSE|FALSE (ssRNA)
RNA: GGGAGUUCUACAGUCCGACGAUCAGCAGGCAUGAUUGUAAUAGUAACUACAGUCCCAGAUGUUGACAGUAUGUCUGCAAUUUGAGAGUCCUUCAAUCCAAUGACAUUCUGUCCAUUGAUUUCACAGAUGUUAUGUUCCGUGAGCAACAGAGGAUUGAGCAUCA
B20: chr9:74905015:74905016:+_ENSMUSG00000007656_ENSMUST00000169492|mus_mus|FALSE|FALSE (ssRNA)
RNA: GGGAGUUCUACAGUCCGACGAUCUGUGUUUGGAUUAUGUGACUUGUCUUCCAACUCGUGGUCUUAAACUUCUGUCUUACAAGAUUCAAAAGGAAGAUACAGAAGAAAUCAAUACAACAGAGGUCCUGUUAAAUAAGAGUAACACAACAGAGGAUUGAGCAUCA
B21: chr9:14812383:14812384:-_ENSMUSG00000031934_ENSMUST00000164273|mus_mus|mus_mus_mus_hu_True|78_108 (ssRNA)
RNA: GGGAGUUCUACAGUCCGACGAUCAUAGCUCAAGUAGAUACACGCUAACAGUAUAAUCACAAAUGUCAGCAGGCGGCAGCUAAUGUACUUGAUGAUUAAAUUAUUAGAAUUUUUCUUUGUCUUCAAGUACUGCUCCACAAUUGGCAACAGAGGAUUGAGCAUCA
B22: 19955215_19955335_1846_CDS_ENSG00000166833_ENST00000396085|human|control|control (ssRNA)
RNA: GGGAGUUCUACAGUCCGACGAUCGUCCAGCCUCUCCGUCACAGAGGCUCUCUUGGCAAGGUCCUUGCUUUUCUCCUUAUCCUUCUCCCGCUGUUGUUUCUCCUUCUCUUUCUCAUUGCCUUUCAGAGAACUCUUCUUGUUGGUCAACAGAGGAUUGAGCAUCA

The experiment concerns the target T1, UNK ZnF1-3. The experiment can be described thus: nsRBNS (natural sequence RNA bind-n-seq); RBNS binding buffer (assumed for nsRBNS): 25 mM Tris pH 7.5, 150 mM KCl, 3 mM MgCl2, 0.01% Triton X-100, 500 ug/ml BSA, 20 U/ml SUPERase-In, 4 C; UNK is unkempt and MSI1 is Musashi-1; names of the RNAs are library labels; protein concentration not given here; high values mean tight binding.
The molecule B1 showed a binding signal of 0.693 enrichment R.

B2 had a binding signal of 0.797 enrichment R.

B3 came in with a binding signal of 0.846 enrichment R.

B4: the binding signal is 1.89 enrichment R.

B5 registered a binding signal of 0.466 enrichment R.

B6 gave a binding signal of 1.52 enrichment R.

In turn, B7 came in with a binding signal of 3.24 enrichment R.

The molecule B8 returned a binding signal of 0.959 enrichment R.

B9 registered a binding signal of 1.77 enrichment R.

For B10, the binding signal was 1.23 enrichment R.

The molecule B11 gave a binding signal of 1.03 enrichment R.

On to B12, for which the binding signal amounted to 0.677 enrichment R.

Regarding B13, the binding signal was determined as 0.677 enrichment R.

Molecule B14 yielded a binding signal of 0.952 enrichment R.

B15 had a binding signal of 0.923 enrichment R.

For B16, the binding signal worked out at 0.791 enrichment R.

Turning to B17, the binding signal worked out at 0.824 enrichment R.

Molecule B18 had a binding signal of 1.23 enrichment R.

As to B19, the binding signal stood at 0.992 enrichment R.

B20: the binding signal is 1.4 enrichment R.

Molecule B21 had a binding signal of 0.974 enrichment R.

Take B22: the binding signal is 0.391 enrichment R.
